Screen size: about 310,000 compounds; about 2,200 (0.71%) showed an effect of 50% or more. The effect is printed as a negative number. This is one part of the list.
These molecules were tested against human ether-à-go-go-related gene (hERG) potassium channel (human, UniProt Q12809) (assay: primary screen, population patch clamp on CHO cells stably expressing hERG).
Sequence of human ether-à-go-go-related gene (hERG) potassium channel (Q12809 whole entry, looked up): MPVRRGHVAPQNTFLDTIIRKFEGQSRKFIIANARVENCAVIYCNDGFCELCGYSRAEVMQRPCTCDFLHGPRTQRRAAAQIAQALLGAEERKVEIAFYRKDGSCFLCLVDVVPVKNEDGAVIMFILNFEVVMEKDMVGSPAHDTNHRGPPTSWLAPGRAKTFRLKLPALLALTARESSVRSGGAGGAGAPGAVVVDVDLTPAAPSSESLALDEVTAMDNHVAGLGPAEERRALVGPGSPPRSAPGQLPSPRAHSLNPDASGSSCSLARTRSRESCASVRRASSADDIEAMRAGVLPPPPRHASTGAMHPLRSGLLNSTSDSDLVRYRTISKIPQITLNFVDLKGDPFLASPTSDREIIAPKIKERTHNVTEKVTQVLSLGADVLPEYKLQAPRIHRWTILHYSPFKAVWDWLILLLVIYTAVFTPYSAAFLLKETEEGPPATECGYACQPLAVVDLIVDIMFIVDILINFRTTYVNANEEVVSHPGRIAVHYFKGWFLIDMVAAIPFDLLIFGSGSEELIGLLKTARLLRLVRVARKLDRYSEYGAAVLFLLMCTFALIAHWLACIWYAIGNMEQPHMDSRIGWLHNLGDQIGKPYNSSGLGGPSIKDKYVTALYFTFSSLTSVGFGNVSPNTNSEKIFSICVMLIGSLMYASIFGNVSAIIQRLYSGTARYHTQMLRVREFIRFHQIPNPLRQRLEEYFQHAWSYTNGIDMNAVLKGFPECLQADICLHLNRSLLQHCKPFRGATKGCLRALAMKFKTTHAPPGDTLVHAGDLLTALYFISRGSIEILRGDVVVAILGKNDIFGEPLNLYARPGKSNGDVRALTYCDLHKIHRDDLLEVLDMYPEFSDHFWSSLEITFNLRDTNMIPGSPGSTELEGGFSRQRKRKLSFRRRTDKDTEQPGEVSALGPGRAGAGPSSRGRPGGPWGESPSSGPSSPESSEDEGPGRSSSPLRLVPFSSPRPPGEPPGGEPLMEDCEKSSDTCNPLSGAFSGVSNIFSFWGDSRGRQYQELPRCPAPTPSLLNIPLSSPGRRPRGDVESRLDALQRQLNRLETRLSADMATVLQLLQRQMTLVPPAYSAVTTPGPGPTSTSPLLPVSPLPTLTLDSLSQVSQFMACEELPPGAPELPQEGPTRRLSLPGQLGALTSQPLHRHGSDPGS

Compared with Clc1ccccc1N/N=C/c1ccc2c(c1)OCO2, O=C(/C=C\Nc1ccc2c(c1)OCO2)c1cccs1 is higher in “hERG current change (%, negative = inhibition) at 1uM” value: 7.24% for the first, 18.5% for the second.

Going from CC(=O)Nc1cc(OC(C)=O)c2nonc2c1OC(C)=O to COc1ccc(NC(=O)C2CCN(S(=O)(=O)c3cccc4nonc34)CC2)c(OC)c1, the “hERG current change (%, negative = inhibition) at 1uM” value rises from 3.83% to 9.22%.

First: CCN(CC(=O)NCc1ccc(F)cc1)C(=O)/C=C/c1cccs1
Second: CN(C)S(=O)(=O)c1cccc(C(=O)N(Cc2ccc(F)cc2)Cc2ccco2)c1
The “hERG current change (%, negative = inhibition) at 1uM” value of the first is higher: -4.26% for the first, -14.6% for the second.

First: CC(C)=CCCC(C)CN1CCC(O)CC1 (centres unmarked)
Second: CCOc1ccc(C(=O)NC2CC3CCCC(C2)N3CC(C)C)cc1 (centres unmarked)
The “hERG current change (%, negative = inhibition) at 1uM” value of the first is higher: 4.23% for the first, -17.2% for the second.

Compared with Brc1ccc(OCCCOc2cccc3cccnc23)cc1, N/C(=N\OC(=O)COc1ccc2ccccc2c1)c1ccccn1 is lower in “hERG current change (%, negative = inhibition) at 1uM” value: 14.1% for the first, 7.41% for the second.

First: O=C(CN1C(=O)c2ccccc2C1=O)N1CCN(S(=O)(=O)c2ccccc2)CC1
Second: O=C(NCCc1ccccc1)C(=O)NCC1CCCN1S(=O)(=O)c1ccccc1 (centres unmarked)
The “hERG current change (%, negative = inhibition) at 1uM” value of the first is higher: 4.56% for the first, -2.62% for the second.

First: COC(=O)[C@]1(CC(C)C)N[C@H](c2ccc(-c3ccc(F)cc3)c(OC)c2)[C@@H]2C(=O)N(C)C(=O)[C@@H]21.O=C(O)C(F)(F)F
Second: COc1cc(OC)cc(-c2nnc(SCC(=O)Nc3cccc(C(=O)O)c3)s2)c1
The “hERG current change (%, negative = inhibition) at 1uM” value of the first is lower: 2.43% for the first, 9.97% for the second.

Going from CNS(=O)(=O)Cc1ccc2[nH]cc(CCN(C)C)c2c1 to CN(C)S(=O)(=O)c1ccc(N2CCCC2)c(C(=O)Nc2ccc(Br)cc2F)c1, the “hERG current change (%, negative = inhibition) at 1uM” value falls from 12.5% to 9.99%.

Going from Cc1ccc(NC(=O)c2ccc(S(=O)(=O)Nc3c(C)n(C)n(-c4ccccc4)c3=O)cc2)nc1 to Cc1ccc2c(c1)C(c1ccccc1)N(C(=O)c1ccc(S(=O)(=O)N3CCOCC3)cc1)CC(=O)N2 (centres unmarked), the “hERG current change (%, negative = inhibition) at 1uM” value falls from 15.6% to 0.736%.

Compared with O=C(Oc1cncc(Cl)c1)c1sccc1Cl, COc1cc(OC)c(NC(=O)CCc2nc(-c3cccs3)no2)cc1Cl is higher in “hERG current change (%, negative = inhibition) at 1uM” value: 10.2% for the first, 12.6% for the second.

Going from CCCC(=O)N(C1CC(C)C(C#N)(C#N)C1(C#N)C#N)N(C)C (centres unmarked) to Cc1ccc(C)c(NC(=O)CCN2CC(C)CC(C)C2)c1 (centres unmarked), the “hERG current change (%, negative = inhibition) at 1uM” value rises from 9.61% to 17.5%.

Going from CCc1nc(N2CCN(C(C)=O)CC2)c2c3c(sc2n1)CCCC3 to Cc1cc2cc3c(cc2nc1SCC(=O)N1CCN(C(=O)c2ccco2)CC1)OCO3, the “hERG current change (%, negative = inhibition) at 1uM” value falls from 17.3% to -1.38%.

Going from O=C(c1ccco1)N1CCN(S(=O)(=O)N2CCOCC2)CC1 to CCOC(=O)N1CCN(C(=O)CN(c2cccc(OC)c2)S(C)(=O)=O)CC1, the “hERG current change (%, negative = inhibition) at 1uM” value falls from 10.2% to -6.14%.

Compared with CCOc1ccccc1C(=O)NCC(=O)OCCOc1cccc(Cl)c1, COc1ccccc1C(=O)N1CCNC(=O)C1CC(=O)Nc1ccc(Cl)cc1 (centres unmarked) is lower in “hERG current change (%, negative = inhibition) at 1uM” value: 9.05% for the first, 3.58% for the second.

Going from CC1Cn2c(nnc2-c2cccs2)S1 (centres unmarked) to Cc1ccccc1CC1SC(N=C(N)N)=NC1=O (centres unmarked), the “hERG current change (%, negative = inhibition) at 1uM” value rises from 9.45% to 11.4%.

Compared with O=C(COc1ccc2c(C(F)(F)F)cc(=O)oc2c1)Nc1ccc2c(c1)OCCO2, O=C(CN1CCN(c2ccc(O)cc2)CC1)Nc1ccc2c(c1)OCCO2 is lower in “hERG current change (%, negative = inhibition) at 1uM” value: 9.7% for the first, 4.85% for the second.

First: O=C(NN=C1CCC(c2ccccc2)CC1)c1cc2c(s1)CCCC2 (centres unmarked)
Second: Cl.O=C(CN1CCN(C2CCCCC2)CC1)Nc1cccc2ccccc12
The “hERG current change (%, negative = inhibition) at 1uM” value of the first is lower: -1.87% for the first, 4.28% for the second.

Compared with Cc1noc(C)c1C(=O)OCC(=O)Nc1cccc(S(N)(=O)=O)c1, Cc1noc(C)c1S(=O)(=O)N(CC(=O)N1CCCCCC1)c1ccc(C(C)C)cc1 is lower in “hERG current change (%, negative = inhibition) at 1uM” value: 4.05% for the first, 2.73% for the second.

Going from C[C@@H](NC(=O)[C@@H]1Cc2ccccc2CN1C(=O)OC(C)(C)C)C(=O)NCc1ccco1 to O=C1C=C(NCc2ccco2)CC(c2ccc(Cl)cc2)C1 (centres unmarked), the “hERG current change (%, negative = inhibition) at 1uM” value falls from 8% to -34.8%.

First: Cc1cc(C)c(-c2cc(NC(=O)COC(=O)c3ccc(C#N)cc3)n(-c3ccccc3)n2)cc1C
Second: COC(=O)c1ccc(NC2(C#N)C(=O)Nc3ccccc32)cc1 (centres unmarked)
The “hERG current change (%, negative = inhibition) at 1uM” value of the first is lower: 6.15% for the first, 19.7% for the second.

Going from O=C(CCCCCn1c(=O)[nH]c2ccsc2c1=O)N1CCCCC1 to O=C(NCCCC(=O)N1CCCCC1)c1ccc(Cl)cc1, the “hERG current change (%, negative = inhibition) at 1uM” value falls from 11.9% to 10.6%.

Compared with COc1ccc(Cn2c(O)c(C=Nc3ccc(OC)cc3)c3ccccc3c2=O)cc1, COc1ccc(C(CNC(=O)c2cccc(NS(=O)(=O)c3ccc(Br)cc3)c2)N(C)C)cc1 (centres unmarked) is lower in “hERG current change (%, negative = inhibition) at 1uM” value: 12.8% for the first, -9.93% for the second.

Compared with Clc1ccc(C2[C@H]3CN(CC4CCCCC4)[C@H](c4ccccc4)C34CC2(c2ccccc2)C4)cn1 (some centres unmarked), COc1cc(N2N=C(c3ccccc3)CC2c2ccccc2)c(C=O)cc1C=O (centres unmarked) is lower in “hERG current change (%, negative = inhibition) at 1uM” value: 10.9% for the first, 10.7% for the second.

Compared with CC(C)OP(=O)(OC(C)C)C(O)c1cccc([N+](=O)[O-])c1 (centres unmarked), O=C(NC(=S)N1CCCC1)c1cccc([N+](=O)[O-])c1 is higher in “hERG current change (%, negative = inhibition) at 1uM” value: 13.6% for the first, 17.1% for the second.

Compared with CCOCCCNC(=S)Nc1ccc(Br)cc1Cl, O=C(NNC(=O)c1cccs1)Nc1cccc(Cl)c1 is higher in “hERG current change (%, negative = inhibition) at 1uM” value: 1.96% for the first, 3.77% for the second.

Going from COc1ccc(C(=O)N(C)CCCC2CCCC2)cc1OC1CCN(C(C)C)CC1 to CC1CCN(S(=O)(=O)c2ccc3ncn(CC(=O)N(C)C4CCCCC4)c(=O)c3c2)CC1, the “hERG current change (%, negative = inhibition) at 1uM” value rises from -36.1% to 8.99%.

Going from COc1cccc(NC(=O)Nc2cc(NC(=O)Nc3cccc(OC)c3)c(C)nc2C)c1 to CCc1ccc(NC(=O)C(=O)NNC(=O)COc2cccc(OC)c2)cc1, the “hERG current change (%, negative = inhibition) at 1uM” value falls from 16.1% to 9.6%.

Compared with Cc1ccc(NC(=O)NCc2ccccn2)cc1, COc1ccccc1/C=C1/SC(=O)N(CCC(=O)Nc2ccc(S(=O)(=O)Nc3nccs3)cc2)C1=O is lower in “hERG current change (%, negative = inhibition) at 1uM” value: 9.87% for the first, 4.27% for the second.

Going from COc1ccc(/C=C/C(=O)c2ccc3c(c2)OCO3)cc1OC to O=C(CC1(O)C(=O)N(Cc2ccc3c(c2)OCO3)c2ccccc21)c1ccccc1 (centres unmarked), the “hERG current change (%, negative = inhibition) at 1uM” value rises from 1.11% to 8.97%.

Going from CCCN(CC(=O)Nc1ccccc1C)C(=O)C1CCCN(C(=O)c2ccc(Cl)cc2)C1 (centres unmarked) to CN(CCCN1c2ccccc2CCc2ccccc21)CC(=O)c1ccc(Cl)cc1.Cl, the “hERG current change (%, negative = inhibition) at 1uM” value rises from 4.07% to 7.83%.

Compared with Nc1c(-c2ccccc2)c(CN2CCOCC2)nn1-c1cccc([N+](=O)[O-])c1, NC(N)=N/N=C/c1cn(-c2ccccc2)nc1-c1cccs1.O=[N+]([O-])O is higher in “hERG current change (%, negative = inhibition) at 1uM” value: -0.675% for the first, 1.72% for the second.

First: COc1ccc(OCC(NS(=O)(=O)c2ccc(-n3cnnn3)cc2)C(C)C)cc1 (centres unmarked)
Second: CCOC(=O)C(C(C)=O)C(c1ccc(OCCC(C)C)cc1)C(C(C)=O)C(=O)OCC (centres unmarked)
The “hERG current change (%, negative = inhibition) at 1uM” value of the first is lower: -5.76% for the first, 12.1% for the second.

First: CCOc1cc(C2C3=C(CC(C)(C)CC3=O)Nc3n[nH]c(C)c32)ccc1O (centres unmarked)
Second: Cc1ccccc1-n1c(=S)[nH]c2nc3c(cc2c1=O)COC(C)(C)C3
The “hERG current change (%, negative = inhibition) at 1uM” value of the first is lower: 5.89% for the first, 16.8% for the second.

First: CC1CCN(Cc2c(C(=O)N/N=C/c3cccc(Cl)c3)nnn2-c2nonc2N)CC1
Second: OC1CCN(C(c2ccc3ncccc3c2)c2nnnn2C2CCCCC2)CC1 (centres unmarked)
The “hERG current change (%, negative = inhibition) at 1uM” value of the first is higher: 18.9% for the first, -5.3% for the second.

Compared with CCc1ccc[n+](-c2[nH]c(=O)sc2/C=N/N=C(\[O-])c2ccncc2)c1, NC(=O)c1sc2nc(-c3ccco3)ccc2c1N is lower in “hERG current change (%, negative = inhibition) at 1uM” value: 14.9% for the first, 13% for the second.

First: NC(=O)CSc1ccc(F)cc1
Second: CSc1ccc(C(=O)C2CCCN(Cc3ccn[nH]3)C2)cc1 (centres unmarked)
The “hERG current change (%, negative = inhibition) at 1uM” value of the first is higher: 29.4% for the first, 9.13% for the second.

Going from CCCC(=O)Nc1cc(OCC)c(NC(=O)NC2CCCCC2)cc1OCC to O=C(CNS(=O)(=O)c1ccc(Cl)cc1)NC1CCCCC1, the “hERG current change (%, negative = inhibition) at 1uM” value falls from 5.12% to -14.1%.

Compared with Fc1cccc(-n2ncc(-c3nnnn3-c3ccccc3)c2C(F)(F)F)c1, O=C(CSc1nnc(-c2cccs2)n1Cc1ccccc1)NCc1ccc2c(c1)OCO2 is higher in “hERG current change (%, negative = inhibition) at 1uM” value: -1.24% for the first, 2% for the second.

First: Cc1ccccc1C(=O)Nc1cccc(NC(=O)c2ccc(-c3ccc(Br)cc3)o2)c1
Second: Cc1cc(O)c(NC(=O)c2cc([N+](=O)[O-])ccc2Cl)cc1C
The “hERG current change (%, negative = inhibition) at 1uM” value of the first is higher: 16.5% for the first, 5.91% for the second.

Compared with Br.O=C(CN1CCCCC1)c1ccccc1Cl, NS(=O)(=O)c1ccc(CNC(=S)NC2CCCCC2)cc1 is higher in “hERG current change (%, negative = inhibition) at 1uM” value: 1.65% for the first, 14.5% for the second.

First: Cc1noc(C)c1CN(C(=S)NC(C)C)c1ccccc1
Second: O=C(CSc1nc2ccccc2s1)Nc1nccs1
The “hERG current change (%, negative = inhibition) at 1uM” value of the first is higher: 27.5% for the first, 10.9% for the second.

First: O=C(CN1C(=O)NC2(CCCC2)C1=O)OCCOc1ccc(Br)cc1
Second: COc1cccc(CC2(CO)CCCN(Cc3c(C)cc(C)cc3-n3cccn3)C2)c1 (centres unmarked)
The “hERG current change (%, negative = inhibition) at 1uM” value of the first is higher: 5.87% for the first, -93.1% for the second.

First: Cc1cc2oc(=O)cc(CN(C)Cc3ccccc3F)c2cc1Cl
Second: O=C(CSc1nncc(=O)[nH]1)NC1CCCCC1
The “hERG current change (%, negative = inhibition) at 1uM” value of the first is lower: 14.6% for the first, 19.2% for the second.
